Experimental data reported in PubChem BioAssay AID624417 (National Center for Advancing Translational Sciences (NCATS), 2012).
About 6,400 (1.6%) of roughly 410,000 compounds were called active. The shares of active, inactive and inconclusive entries below differ from those in the screen. Calls follow the shape of the dose curve; as a rule, active = well fitted inhibition curve with a large enough effect; inconclusive = small, poorly fitted or top-dose-only effect; inactive = no such curve, though single readings can be large or run the other way. No potency is given beside an inconclusive call; the fits are too rough.

Biological target: Glucagon-like peptide 1 receptor (Homo sapiens) (UniProt P43220)
Chain of UniProt P43220 (P43220 whole entry, looked up): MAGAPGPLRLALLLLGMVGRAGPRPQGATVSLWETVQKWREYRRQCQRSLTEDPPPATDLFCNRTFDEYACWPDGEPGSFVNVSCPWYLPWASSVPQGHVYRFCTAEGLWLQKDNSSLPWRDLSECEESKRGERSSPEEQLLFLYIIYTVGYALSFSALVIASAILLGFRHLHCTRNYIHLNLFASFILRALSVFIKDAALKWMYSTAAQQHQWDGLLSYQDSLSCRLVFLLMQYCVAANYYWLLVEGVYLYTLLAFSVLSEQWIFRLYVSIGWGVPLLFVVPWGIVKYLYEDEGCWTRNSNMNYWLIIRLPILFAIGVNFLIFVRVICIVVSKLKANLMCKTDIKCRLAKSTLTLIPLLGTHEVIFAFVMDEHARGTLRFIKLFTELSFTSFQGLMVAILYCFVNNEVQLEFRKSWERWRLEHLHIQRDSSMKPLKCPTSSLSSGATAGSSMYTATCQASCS
Assay: qHTS of GLP-1 Receptor Inverse Agonists (Inhibition Mode); also: nearly all actives have a fitted effect of over 55% in size
Conditions: HEK293 GLP-1R CRE-luciferase, luminescence, 24 h, GLP-1R form is constitutively active; activity change, negative = inhibition: at 38.3 µM (top of the series) unless noted
Method in brief: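 HEK293 cells stably co-expressing a cAMP-responsive luciferase reporter and constitutively active GLP-1R were seeded, incubated 12 h, then exposed to compounds for 24 h at 37 C. Luminescence was read 12 min after detection reagent; inverse agonists lower signal.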
% is scaled to controls: 0 for no effect and ±100 for the full control effect; potency is read from the fitted curve at half-maximal effect; tags tell the direction and shape of the fitted curve.

SMILES	Potency	activity change, negative = inhibition
COc1ccc(NC(=O)O[C@@H](C)[C@@H]2CN3CCc4c([nH]c5ccc(-c6ccc(OC)cc6)cc45)[C@@H]3C[C@@H]2N(C)C(=O)Nc2ccc(OC)cc2)cc1	inconclusive [inhibitor, partial curve, poor fit]	–
Cn1nc(C(F)(F)F)c(-c2ccc(Br)cc2)c1NC(=O)Nc1ccc(F)cc1F	inconclusive [inhibitor, partial curve]	–
Cc1cc(C)n(-c2nc(C)nc(NCc3ccccc3)n2)n1	inconclusive [inhibitor, partial curve, poor fit]	–
Cc1cc2occ(CC(=O)N(C)CC(=O)Nc3cccc(F)c3)c2cc1C	inconclusive [inhibitor, partial curve, poor fit]	–
O=C(NCCN1CCCC1)c1ccc2c(c1)N(Cc1ccc(F)cc1)C(=O)c1ccccc1S2=O (configuration not stated)	inconclusive [inhibitor, single point]	–
Fc1cccc(CCN2CCNC[C@@H]2c2ccccc2)c1	inconclusive [inhibitor, single point]	–
CC(c1ccccc1)n1cc(C(=O)NCC2COc3ccccc3O2)nn1 (configuration not stated)	inconclusive [inhibitor, full curve, poor fit]	–
COc1cc(/C=C2\C(=N)N3N=C(S(C)(=O)=O)SC3=NC2=O)cc(OC)c1OCCOc1ccccc1C	–	inconclusive: -36.4% [inhibitor]
COc1ccc(/C=N/Nc2c(Cl)cc(Cl)cc2Cl)cc1CN1CCOCC1	inconclusive [inhibitor, partial curve, poor fit]	–
C[C@]12c3[nH]c4cc(-c5ccco5)ccc4c3CCN1C(=O)[C@@H](CC(=O)NCC13CC4CC(CC(C4)C1)C3)C[C@@H]2C(=O)N1CCCCC1	inconclusive [inhibitor, single point]	–
Cc1ccc(N2C(=O)CC(Nc3ccc(Cl)c(S(=O)(=O)N(C)C)c3)C2=O)c(C)c1 (configuration not stated)	inactive	–
COc1ccccc1-c1n[nH]c2c1[C@H](C)CC[C@H]2C(C)C	inconclusive [inhibitor, partial curve, poor fit]	–
CCOC(=O)C[C@H]1c2ccc(C(F)(F)F)cc2S(=O)(=O)N1c1cccc(OC)c1	inconclusive [inhibitor, single point]	–
Cc1cccc(C)c1NC(=O)C(C1CC1)n1c(=O)c(-c2cc3ccccc3[nH]2)nc2ccccc21 (configuration not stated)	inconclusive [inhibitor, full curve, poor fit]	–
O=C(NCc1ccc2c(c1)OCO2)C1CCCN(S(=O)(=O)c2cccc3nonc23)C1 (configuration not stated)	inconclusive [inhibitor, full curve, poor fit]	–
O=C(Nc1ccc(Cl)cc1)N1CCN(c2ccccc2)CC1	inconclusive [inhibitor, single point]	–
COc1ccc2c(c1)c1c(c(=O)n(-c3cccc(Cl)c3)c(=O)n1CC(=O)N1CCCC1)n2C	inactive	–
O=c1c2ccccc2nc(COc2ccccc2)n1/N=C/c1cn[nH]c1-c1ccccc1	inconclusive [inhibitor, single point]	–
CCOC(=O)c1ccc(NC(=O)N2CCN(c3ccccc3OC)CC2)cc1	inconclusive [inhibitor, partial curve, poor fit]	–

SMILES	Potency	activity change, negative = inhibition
Cc1ccnc(N2CCN(C(=O)CSc3nc4ccccc4nc3N3CCCCC3)CC2)c1	inconclusive [inhibitor, partial curve, poor fit]	–
CC(C)c1c(C(=O)N/N=C/C2CC=CCC2)nnn1-c1nonc1N (configuration not stated)	inactive	–
CC(=O)c1ccc(NC(=O)COCc2cc(-c3ccco3)on2)cc1	inactive	–
CCn1cc(SCC(=O)NCc2ccc3c(c2)OCO3)c2ccccc21	inconclusive [inhibitor, partial curve, poor fit]	–
NC(=O)[C@H]1CC2(CC(c3cccc(NC(=O)CC(c4ccccc4)c4ccccc4)c3)=NO2)CN1C(=O)c1ccccc1C(=O)c1ccccc1 (some centres not stated)	inconclusive [inhibitor, partial curve, poor fit]	–
CN(C)CCCNC(=O)c1ccc(Cl)c(S(=O)(=O)N(C)c2ccccc2)c1	inconclusive [inhibitor, single point]	–
CC1CCCC(C)N1C(=O)CSc1nnc(COc2cccc3cccnc23)o1 (configuration not stated)	inconclusive [inhibitor, single point]	–
O=C(c1cccs1)N1CCN(Cc2ccc3c(c2)OCO3)CC1	inactive	–
COCCCNC(=O)CSc1nc2c(sc3ccccc32)c(=O)n1CCCC(=O)NCCOC	inactive	–
Fc1ccccc1Cn1c(-c2ccccc2)nc2ccccc21	inconclusive [inhibitor, partial curve, poor fit]	–
COc1ccc(-c2nc3c(C)cc(Br)cn3c2Cc2ccc(C)cc2)cc1OC	inconclusive [inhibitor, single point]	–
COc1cc(NC(=O)c2cccs2)c(OC)cc1NC(=O)CCC(=O)Nc1ccc(C)cc1	inconclusive [inhibitor, single point]	–
Clc1ccccc1CNc1ncnc2c1c(-c1ccccc1)cn2-c1ccccc1	inconclusive [inhibitor, partial curve, poor fit]	–
CCCNC(=O)c1ccc(N2CCC3(CC2)CC(c2cccc(Br)c2)=NO3)c(NC(=O)c2ccco2)c1	inconclusive [inhibitor, single point]	–
CCN(CC)CCCNC(=O)c1ccc(Cl)c(S(=O)(=O)Nc2ccccc2OC)c1	inconclusive [inhibitor, single point]	–
CCOc1ccc(/C=N/OC(C)C(=O)NCc2ccc3c(c2)OCO3)cc1 (configuration not stated)	inconclusive [inhibitor, single point]	–
c1ccc2c(c1)CSc1sccc1C2=C1CCNCC1	inconclusive [inhibitor, full curve]	–
CCOC(=O)c1ccc(NC(=O)COc2ccccc2CNCCc2ccccc2)cc1	inconclusive [inhibitor, single point]	–
